{"source": "ChEMBL document CHEMBL1156829", "note": "The full ranking holds about 5,400 compounds; the median of “IFI” is about 2, and the highest 2% start at about 22. Some of the results follow."}
{"experiment": "NOVARTIS: Inhibition Frequency Index (IFI) - the number of HTS assays where a compound showed > 50% inhibition/induction, expressed as a percentage of the number of assays in which the compound was tested.", "assay_type": "functional", "units": {"IFI": "%"}}
{"smiles": "CCOC(=O)c1cnc2cc(Cl)c(OC)cc2c1NCCCN1CCOCC1", "IFI": 0}
{"smiles": "Cc1ccc(CNC(=O)CCCCCn2c(SCc3cccc([N+](=O)[O-])c3)nc3ccsc3c2=O)cc1", "IFI": 0}
{"smiles": "CCCOC(=O)C1=C(C)NC2=C(C(=O)CC(c3ccc(OC)c(OC)c3)C2)C1c1cccc(Cl)c1Cl", "note": "(stereo not drawn)", "IFI": 7.14}
{"smiles": "Cc1ccc(C)c(Nc2nc(NCc3ccccc3)c3ccccc3n2)c1", "IFI": 8.11}
{"smiles": "CC(=O)N(C1=C(N2CCC(C)CC2)C(=O)c2ccccc2C1=O)c1cccc(F)c1", "IFI": 0}
{"smiles": "O=[N+]([O-])c1cccc(C=NNc2nc(NN=Cc3cccc([N+](=O)[O-])c3)nc(Nc3cccc4ccccc34)n2)c1", "IFI": 2.3}
{"smiles": "CCCCNCCN1CCN(c2cc(OC)cc(OC)c2)C[C@@H]1Cc1ccccc1", "IFI": 2.44}
{"smiles": "Cc1cccc(-n2c(-c3ccccc3)nc3ccc(-c4ccc5nc(-c6ccccc6)n(-c6cccc(C)c6)c(=O)c5c4)cc3c2=O)c1", "IFI": 0}
{"smiles": "O=C(Cc1c(F)cccc1Cl)Nc1cc(C(=O)N2CCN(Cc3ccccc3)CC2)ccc1N1CC2CC(C1)c1cccc(=O)n1C2", "note": "(stereo not drawn)", "IFI": 1.21}
{"smiles": "COc1ccccc1Cc1nc2ccccc2nc1SCC(=O)Nc1cccc(C(F)(F)F)c1", "IFI": 0}
{"smiles": "O=C(NCC1(c2ccccc2)CCCC1)C(=O)Nc1nncs1", "IFI": 0}
{"smiles": "COc1ccc(C(=O)C(C)[n+]2cccc3ccc4cccnc4c32)cc1", "note": "(stereo not drawn)", "IFI": 7.14}
{"smiles": "C=CCNC(=O)c1cc(OCc2ccccc2)c(OCc2ccccc2)c(OCc2ccccc2)c1", "IFI": 0}
{"smiles": "COCCN1C(=O)c2ccccc2C(C(=O)Nc2cccc(C(F)(F)F)c2)C1c1cccs1", "note": "(stereo not drawn)", "IFI": 9.09}
{"smiles": "CSc1nnc(CCNC(=O)c2c(-c3ccccc3)noc2C)n1-c1ccc(F)cc1", "IFI": 1.04}
{"smiles": "O=c1c(=Cc2ccc(-c3ccc([N+](=O)[O-])cc3Cl)o2)sc2nc3ccccc3n12", "IFI": 0}
{"smiles": "O=c1sc(=NCC(O)c2ccc(Cl)c(Cl)c2)[nH]c2ccccc12", "note": "(stereo not drawn)", "IFI": 7.32}
{"smiles": "Nc1cc2c(cc1Br)CCCC2", "IFI": 7.14}
{"smiles": "O=C(NCCc1ccccc1)c1cnc(NCCCN2CCCC2)nc1NCC1CCCCC1", "IFI": 0.952}
{"smiles": "CCC(C)N(CCC(=O)N1CCN(Cc2ccccc2)CC1)C(=O)Nc1cccc(Cl)c1Cl", "note": "(stereo not drawn)", "IFI": 1.89}
{"smiles": "COc1ccc(C(=O)C[n+]2ccc(N)c(C)c2C)cc1", "IFI": 0}
{"smiles": "O=C(NC1CC1)c1ccc(N2C(=O)C3C4c5ccccc5C(c5ccccc54)C3C2=O)cc1", "note": "(stereo not drawn)", "IFI": 0}
{"smiles": "O=C(c1ccc([N+](=O)[O-])cc1)N1CCC(c2nc(O)c3nnn(Cc4c(F)cccc4Cl)c3n2)CC1", "IFI": 7.89}
{"smiles": "COc1ccc(-c2nc(SCCCCC(=O)N3CCN(C(c4ccccc4)c4ccccc4)CC3)[nH]c2-c2ccc(OC)cc2)cc1", "IFI": 0.926}
{"smiles": "C=CCc1cc(C=c2sc3n(c2=O)C(c2ccccc2)C(C(=O)OCC)=C(C)N=3)cc(OC)c1O", "note": "(stereo not drawn)", "IFI": 1.24}
{"smiles": "O=[N+]([O-])c1ccc(C2OC3C(c4ccc(Cl)cc4)=Nc4ccccc4N3C2c2ccc([N+](=O)[O-])cc2)cc1", "note": "(stereo not drawn)", "IFI": 0}
{"smiles": "CCc1ccc(NC(=O)C2c3ccccc3C(=O)N(CC(C)C)C2c2cccs2)cc1", "note": "(stereo not drawn)", "IFI": 6.06}
{"smiles": "O=C1CC(c2ccc([N+](=O)[O-])cc2)C2=C(CC(c3ccc(F)cc3)CC2=O)N1", "note": "(stereo not drawn)", "IFI": 0}
{"smiles": "COc1ccc(-n2nc(C(=O)NCC(=O)Nc3ccc(F)cc3)c3ccccc3c2=O)cc1Cl", "IFI": 3.49}
{"smiles": "Cc1ccccc1C(=O)N(CC(=O)Nc1cc(C(C)(C)C)nn1-c1ccccc1Cl)C(C)C", "IFI": 2.78}
{"smiles": "COc1ccc(C(OCC(=O)N2CCN(Cc3ccccc3)CC2)c2ccc(F)cc2)cn1", "note": "(stereo not drawn)", "IFI": 2.88}
{"smiles": "COc1ccc2c(c1)C=C([C@@H]1C[C@H]3CN(c4ccccc4)C(=O)[C@]34CCCN14)CO2", "IFI": 0}
{"smiles": "Cc1ccn2c(NC(C)(C)CC(C)(C)C)c(-c3ccccc3OC(=O)CC(C)C)nc2c1", "IFI": 4.67}
{"smiles": "COc1cccc(OCCN2CCN(c3ncnc4c3cnn4-c3ccccc3)CC2)c1", "IFI": 9.09}
{"smiles": "O=C(C[n+]1ccccc1)NN=Cc1ccc(Cl)c(Cl)c1", "IFI": 0}
{"smiles": "COC(=O)CNC(c1ccccc1)c1cc(Br)ccc1NC(=O)C(Cc1ccccc1)NC(=O)OCc1ccccc1", "note": "(stereo not drawn)", "IFI": 0}
{"smiles": "CCCN1CCC(N2C[C@@H](NCCC3=C(C)CCCC3(C)C)C[C@H]2C(=O)NCC)CC1", "IFI": 3}
{"smiles": "CCOC(=O)c1cccc(NC(=O)CCn2nc(C)c3c(C)n(-c4ccccc4)nc3c2=O)c1", "IFI": 0}
{"smiles": "COC(=O)c1ccccc1NC(=O)CN(C)c1nc(-c2ccc(OC)cc2)no1", "IFI": 0}
{"smiles": "CC(=O)N(C1=C(N2CCCCC2)C(=O)c2ccccc2C1=O)c1cccc(F)c1", "IFI": 0}
{"smiles": "CC(C)(C[N+](C)(C)C)C1OC2CCCCC2C2C=CCCC21", "note": "(stereo not drawn)", "IFI": 6.9}
{"smiles": "COC(=O)c1[nH]c2ccc(Cl)cc2c1NC(=O)C(C)N1CCN(C2CCCCC2)CC1", "note": "(stereo not drawn)", "IFI": 10.2}
{"smiles": "COc1cc(NC(=O)/C=C/c2ccccc2Cl)cc(OC)c1OC", "IFI": 1.56}
{"smiles": "CCCCCCCCCCCC(=O)Oc1ccccc1-c1nc2ccccn2c1NC(C)(C)CC(C)(C)C", "IFI": 2.83}
{"smiles": "COC(=O)C1CCCCN1S(=O)(=O)c1ccc(C)cc1", "note": "(stereo not drawn)", "IFI": 0}
{"smiles": "N=c1n(CCN2CCCCC2)c2ccccc2n1CC(O)COc1ccc(Cl)cc1", "note": "(stereo not drawn)", "IFI": 9.43}
{"smiles": "CCCCN(CC)CCNC(=O)c1cc2c(-c3ccc(Cl)cc3)nn(C)c2s1", "IFI": 0}
{"smiles": "Clc1ccc2c(c1)nc(N1CCNCC1)n2Cc1ccccc1", "IFI": 0.8}
{"smiles": "CCN1CCN(c2cc(C)c3cc(NC(=O)c4ccc(OC)c([N+](=O)[O-])c4)ccc3n2)CC1", "IFI": 11.5}
{"smiles": "COc1ccc(Nc2nc(Nc3ccc(OC)cc3)c3[nH]ccc3n2)cc1", "IFI": 0}
{"smiles": "CCNC(=O)C1CCN(c2cccc3c2C(=O)N(C2CCCCCCC2)C3=O)CC1", "IFI": 3.45}
{"smiles": "CC(=O)Nc1cccc(-c2cncc(-c3ccc(C(=O)O)cc3)n2)c1", "IFI": 0}
{"smiles": "Cc1cc(Nc2ccc(C)c(C)c2)n2cnnc2n1", "IFI": 0}
{"smiles": "CCCCCCCC[n+]1c(C)n(C)c2cc(Cl)c(Cl)cc21", "IFI": 0}
{"smiles": "CC(=O)c1ccc(-n2cc(C(=O)C(C)Oc3ccc(Cl)cc3Cl)nn2)cc1", "note": "(stereo not drawn)", "IFI": 1.3}
{"smiles": "CCC(c1nc2ccccc2c(=O)n1CC)N1CCN(C(=O)Nc2ccccc2C(F)(F)F)CC1", "note": "(stereo not drawn)", "IFI": 2.08}
{"smiles": "CCOC(=O)C1=C(C)NC2=C(C(=O)C(C(=O)OCC)C(c3ccc(OC)cc3)C2)C1c1ccc(OC)c(OC)c1", "note": "(stereo not drawn)", "IFI": 4.65}
{"smiles": "CCc1c(C#N)c(N)nc(SCC(=O)c2ccc(C)cc2)c1C#N", "IFI": 3.49}
